In PubChem BioAssay AID624296 (National Center for Advancing Translational Sciences (NCATS), 2012):
In all, about 350,000 compounds went through this assay and about 9,900 (2.8%) were called active. The shares of active, inactive and inconclusive entries below differ from those in the screen. The call rests on the fitted dose curve; in most records, active means well fitted activation curve with a large enough effect; inconclusive means small, poorly fitted or top-dose-only effect; inactive means no such curve, though single readings can be large or run the other way. No potency is given beside an inconclusive call; the fits are too rough.

Experiment: A quantitative high throughput screen for small molecules that induce DNA re-replication in MCF 10a normal breast cells. Further: nearly all actives have a fitted effect of over 50% in size.
Settings: MCF 10A DNA re-replication, Hoechst nuclear intensity, 48 h; series mostly up to 46.1 µM
Potency means the concentration at half of the fitted maximal effect; tags describe the fitted curve by direction and shape.

SMILES	Potency
Cn1c(N)cc(=O)n(Cc2ccccc2)c1=O	inactive
CCOC(=O)c1cc2c(=O)n3cccc(C)c3nc2n(CC(C)C)c1=NC(=O)c1ccco1	inconclusive [activator, partial curve]
COc1ccc(S(=O)(=O)N2CCCCC2)cc1NC(=O)CSc1ncccn1	inconclusive [activator, single point]
CC(=O)Nc1ccc(CN(C)CC2CCCN(CCc3cccc(C(F)(F)F)c3)C2)cc1 (stereo not given)	inconclusive [activator, partial curve, poor fit]
OC(CN1CCOCC1)c1ccc(F)cc1 (stereo not given)	inactive
Oc1ccccc1-c1cc(-c2ccc(F)cc2)n[nH]1	inconclusive [activator, partial curve, poor fit]
O=C(CCNC(=O)c1ccccc1Cl)NNC(=O)c1ccccc1O	inconclusive [activator, partial curve, poor fit]
O=C(CSc1nc(Cc2ccccc2)nc2ccccc12)Nc1nc2c(s1)CCCC2	active: 23.1 µM
Cc1ccc(-c2cc(-c3ccc(F)cc3)n[nH]2)c(O)c1	inconclusive [activator, single point]
CCOc1cc(N2CCOCC2)c(OCC)cc1NC(=O)Cn1nc(C)c([N+](=O)[O-])c1C	inconclusive [activator, partial curve, poor fit]
Cc1ccc(OCC(=O)N/N=C/c2ccccc2)c([N+](=O)[O-])c1	inconclusive [activator, partial curve, poor fit]
OC(COc1ccccc1)CN1CCN(c2cccc(Cl)c2)CC1 (stereo not given)	inactive
CN(Cc1nc2c(s1)CCCC2)C(=O)CCc1nnc(-c2ccccc2)o1	inconclusive [activator, single point]
COc1cc(NC(=S)NC2CC2)c(OC)cc1Cl	inactive
COc1ccc(C2(C)C(C#N)C(=O)NC(=O)C2C#N)cc1 (stereo not given)	inactive
Cn1cc([N+](=O)[O-])c(C(=O)Nc2cc(Oc3cccnc3)cc([N+](=O)[O-])c2)n1	active: 9.2 µM
Cc1nn(-c2cc(N3CCNCC3)ccc2[N+](=O)[O-])c(=O)c2ccccc12	inactive
O=C(CN(CC1CCCO1)C(=O)CNS(=O)(=O)c1ccc(Cl)cc1)NC1CCCC1 (stereo not given)	inactive
O=C1N=C(N2CCc3ccccc3C2)S/C1=C\c1ccc(O)cc1	inconclusive [activator, single point]
O=C(CNCc1ccccc1)Nc1ccccc1-c1ccccc1	active: 23.1 µM
CC(SC1=Nc2ccccc2C2CC=NN12)C(=O)NC1(C#N)CCCCC1 (stereo not given)	inconclusive [activator, single point]
COc1ccc2cc(C(=O)C3CCCN(Cc4cnc(N5CCOCC5)s4)C3)ccc2c1 (stereo not given)	inconclusive [activator, partial curve, poor fit]
CC1CCN(CCCNC(=O)c2cc3c(Cl)nc4ccccc4c3s2)CC1	inconclusive [activator, single point]
COc1cccc(-c2noc(C3CCCN(C(=O)c4ccccc4OC)C3)n2)c1 (stereo not given)	inactive

SMILES	Potency
Cc1ccc(-c2nc(CS(=O)CC(=O)NCc3ccco3)c(C)o2)cc1 (stereo not given)	inactive
O=C(NCc1ccccn1)c1cc(-c2ccc(-c3ccccc3)cc2)nc2ccccc12	inconclusive [activator, full curve, poor fit]
CCOc1ccccc1NC(=O)c1oc2ccccc2c1NC(=O)C1CC1	inconclusive [activator, full curve, poor fit]
COc1ccc([N+](=O)[O-])cc1NC(=O)Nc1ccc(OC)c(OC)c1	inactive
COc1cccc(/C(O)=C/c2nc3ccc(C(=O)NCCc4cccc(C)c4)cc3[nH]c2=O)c1	inconclusive [activator, partial curve, poor fit]
Cc1nc2ccc(NC(=O)c3cc(S(=O)(=O)N(C)c4ccccc4)ccc3Cl)cc2s1	inactive
O=C(NCc1ccccc1)c1onc(CSc2ccc(F)cc2)c1C(=O)NCCCN1CCOCC1	inconclusive [activator, single point]
C[N+]12CCC(CC1)[C@@H](OC(=O)C(O)(c1ccccc1)c1ccccc1)C2	inactive
O=C(Nc1cccc2cccnc12)c1ccc(Cl)cc1Cl	inactive
O=C(Cn1ncc(Cl)c(Cl)c1=O)NC(=O)NC1CCCCC1	active: 8.2 µM
Cc1cccc(-c2csc(N)c2C(=O)OC(C)C)c1	inconclusive [activator, partial curve, poor fit]
CCOC(=O)c1[nH]c(C)c(C(=O)Nc2cc(Cl)ccc2C)c1C	inconclusive [activator, full curve, poor fit]
O=C(COC(=O)c1ccc(O)cc1)NC1CCCCCC1	inactive
O=C(/C=C/c1ccco1)NC(=S)Nc1ccc(N2CCOCC2)c(Cl)c1	inconclusive [activator, full curve, poor fit]
Cc1ccc(S(=O)(=O)N2CCC(C(=O)N3CCCCCCC3)CC2)cc1	inactive
COC(=O)c1cc(C(=O)c2cc(F)ccc2O)cn2c(=O)c3c(C)c(C)sc3nc12	active: 3.66 µM
COc1ccc(NC(=O)CC2C(=O)N(CCc3ccccc3)C(=S)N2Cc2cccnc2)cc1 (stereo not given)	inconclusive [activator, single point]
CCc1cc(=O)oc2cc(C)c3c(C)coc3c12	inactive
Cc1ccc(Nc2nc(-c3ccc(O)c(O)c3)cs2)nc1	inconclusive [activator, partial curve, poor fit]
Cc1ccc(NC(=O)c2ccccc2NS(=O)(=O)c2ccc(F)cc2)cc1S(=O)(=O)N1CCCCC1	inconclusive [activator, partial curve, poor fit]
COc1ccc(NC(=O)c2cccc(-c3ccc(O)cc3)c2)cn1	inconclusive [activator, single point]
COc1ccc(OC)c(-c2csc(NC(=O)Cc3cccs3)n2)c1	inconclusive [activator, single point]
Cc1ccc(CN(CC(=O)NCc2ccc3c(c2)OCO3)C(=O)c2csnn2)cc1	inconclusive [activator, single point]
Cc1ccc(NC(=O)C2CCN(S(=O)(=O)c3ccc4c(c3)oc(=O)n4C)CC2)cc1	inactive

SMILES	Potency
CN(C(=O)C1CCOC1)c1nnc(-c2ccccn2)s1 (stereo not given)	inactive
COc1ccc(Br)cc1C(=O)Nc1cccc(C)c1	inactive
CC(C)(C)C1CCC(=NOC(=O)c2ccc(F)cc2)CC1 (stereo not given)	inconclusive [activator, partial curve, poor fit]
Cc1cccn2c(=O)c3cc(C#N)c(=NC(=O)c4cccs4)n(CCCOC(C)C)c3nc12	inconclusive [activator, full curve, poor fit]
COc1ccc(N(CC(=O)N2CCN(c3cccc(Cl)c3)CC2)S(=O)(=O)c2c(C)noc2C)cc1	inconclusive [activator, full curve, poor fit]
Cc1ccc(Cl)cc1NC(=S)N(CCN(C)C)Cc1cccs1	inconclusive [activator, partial curve, poor fit]
N#Cc1c(N2C(=O)C3C4C=CC(C4)C3C2=O)sc2c1CCC2 (stereo not given)	inconclusive [activator, partial curve, poor fit]
Cc1ccc(-c2n[nH]c(=S)n2/N=C/c2c(C)[nH]n(-c3ccccc3)c2=O)cc1	inconclusive [activator, single point]
Cc1nc(SCC(=O)N2CCNC2=O)c2ccccc2n1	inconclusive [activator, single point]
CC(C)c1ccc(NC2CCCN(C(=O)c3cc(C(C)C)[nH]n3)C2)cc1 (stereo not given)	inactive
COCCCn1c(Cc2csc(Nc3cccc(Cl)c3)n2)nnc1SCC(=O)OC1CCCCC1	inconclusive [activator, single point]
Cc1cccc(CSc2nc3ccccc3c(=O)n2C)c1	inactive
Cc1cc(NC(=O)CN2CCN(C)CC2)no1	inconclusive [activator, partial curve, poor fit]
CCOc1ccc(NC(=O)CN(C)C(=O)Cn2cnc3c2c(=O)n(C)c(=O)n3C)cc1OCC	inactive
Cc1cc(C)c(S(=O)(=O)c2cccc(Br)c2C)c(Cl)n1	inactive
COc1cccc(N/C(SCc2cccc([N+](=O)[O-])c2)=C(/C#N)C(N)=O)c1	inconclusive [activator, single point]
COc1cc(C2=NOC(C(=O)NCc3ccccn3)C2)cc(OC)c1OC (stereo not given)	inconclusive [activator, partial curve, poor fit]
COc1ccc(-c2nc3c(c(=O)[nH]c(=O)n3Cc3ccccc3)n2Cc2ccccc2)cc1	inconclusive [activator, partial curve, poor fit]
CCOCC(=O)Nc1ccc([N+](=O)[O-])cc1Cl	inconclusive [activator, single point]
N#Cc1cccc(NC(=O)c2nc(-c3ccccc3)n(-c3ccccc3)n2)c1	inconclusive [activator, single point]
COc1ccc(Br)cc1/C=N/Nc1ccccn1	active: 23.1 µM
Cc1ccc(S(=O)(=O)NCc2ccncc2)cc1	inconclusive [activator, full curve, poor fit]
